Reference: the supplement of paper PMC4723716
± gives the uncertainty stated by the source. The full ranking holds about 9,900 compounds; the median of “viability index relative to DMSO control” is about 1, and the lowest 2% start at about 0.85. The list shows a part of the results.

Tested on: Plasmodium falciparum NF54 stage V gametocytes
Experiment: viability index relative to DMSO control (fraction); higher = less gametocyte killing
Details: 2.5 µM, incubation time: 72 h
Method in brief: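 In 1,536-well plates, 10 µl of serum-free medium holding P. falciparum NF54 stage V gametocytes (0.75% gametocytemia, 1.25% hematocrit) received compound at 2.5 µM for 72 hr at 37°C in low oxygen. After one to two hours with 3 µl of 2.5 µM MitoTracker Red CMXRos containing 0.13% saponin, red particles of 20–70 µm2 were counted in a single field per well. Viability index is reported as the particle count over the plate mean of wells treated with solvent only.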

[1] = library set: Broad Institute Blood Stage
[2] = library set: Broad Institute DOS

Structure (SMILES)	viability index [1]	viability index [2]
COc1ccccc1CN1C[C@@H](C)[C@H](OC)CN(C)C(=O)c2ccc(NC(=O)Nc3ccccc3OC)cc2OC[C@H]1C	0.855 ± 0.025	
CCCNC(=O)N1C[C@H](C)[C@@H](OC)CN(C)C(=O)c2ccc(NC(=O)CC)cc2OC[C@@H]1C		1.04 ± 0.033
N#C[C@H]1[C@H](c2ccccc2)[C@@H](CO)N1C(=O)c1ccccc1F		1.09 ± 0.072
CCN(C[C@@H]1[C@@H](c2ccc(-c3cccnc3)cc2)[C@H](CO)N1C(C)=O)C(C)=O		0.956 ± 0.12
Cc1noc(C)c1NC(=O)Nc1ccc2c(c1)C(=O)N([C@@H](C)CO)C[C@H](C)[C@H](CN(C)Cc1ccc3c(c1)OCO3)OCCCC[C@@H](C)O2		1.065 ± 0.0015
OC[C@@H]1[C@H](c2ccccc2)C2(CN(Cc3cccnc3)C2)N1Cc1ccncc1		1.1 ± 0.047
COc1ccc(C#Cc2ccc([C@H]3[C@@H](CO)N4C(=O)CN(C(=O)NC(C)C)C[C@H]34)cc2)cc1		1.06 ± 0.022
c1ccc(-c2ccc([C@H]3[C@H]4CNC[C@@H]3N4Cc3cc(-c4ccccc4)on3)cc2)cc1		0.9787 ± 0.0045
CN(C)CC(=O)N1[C@H](C(=O)Nc2nccs2)[C@@H](CO)[C@@H]2Cn3c(ccc(C4=CCCCC4)c3=O)[C@@H]21		1.02 ± 0.015
CC(C)CC#Cc1ccc([C@H]2[C@@H](CO)N3CCCCN(C(=O)Nc4ccccc4)C[C@H]23)cc1		0.782 ± 0.084
CCCC#Cc1cnc2c(c1)C(=O)N([C@H](C)CO)C[C@@H](C)[C@H](CN(C)C(=O)Nc1cc(F)ccc1F)O2		0.822 ± 0.058
CO[C@@H](CN(C)Cc1ccc(-c2ccccn2)cc1)[C@H](C)CN(C(=O)Nc1ccc(F)cc1)[C@H](C)CO		1.14 ± 0.077
O=C(C1CCCCC1)N1[C@@H]2CN(S(=O)(=O)c3ccccc3)c3ccccc3[C@@H]2[C@@H]1CO		1 ± 0.065
CC(C)N(C[C@H]1[C@@H](c2ccccc2)[C@@H](CO)N1CC1CC1)C(=O)C1CCC1		1.07 ± 0.014
COCC(=O)N1[C@@H](C#N)[C@@H](c2ccc(C#CCC3CCCC3)cc2)[C@@H]1CO		1.107 ± 0.0088
O=S(=O)(c1ccc(F)cc1)N1CCCCN2[C@H](C1)[C@H](c1ccc(-c3cncnc3)cc1)[C@@H]2CO		1.057 ± 0.0041
C[C@H]1CN([C@@H](C)CO)C(=O)c2c(c3ccccc3n2C)-c2ccccc2CO[C@@H]1CN(C)Cc1cccc(C(F)(F)F)c1		0.975 ± 0.022
CNC[C@H]1OCCCC[C@@H](C)Oc2ccc(NS(=O)(=O)c3ccc(F)cc3)cc2C(=O)N([C@H](C)CO)C[C@@H]1C		1.13 ± 0.13
N#C[C@H]1[C@H](c2ccc(-c3cccc(F)c3)cc2)[C@H](CO)N1c1nc(-c2ccccc2)cs1		1.039 ± 0.0041
Cc1noc(C)c1NC(=O)N(C)C[C@@H]1Oc2cc(C#CCN(C)C)ccc2S(=O)(=O)N([C@@H](C)CO)C[C@@H]1C		0.972 ± 0.051
CCS(=O)(=O)Nc1ccc2c(c1)C(=O)N(C)C[C@@H](OC)[C@H](C)CN(C(=O)c1ccc3c(c1)OCO3)[C@H](C)CO2		1.11 ± 0.061
COc1ccccc1NC(=O)N1CC(=O)N2[C@@H](CO)[C@H](c3ccc(C#CC(C)C)cc3)[C@@H]2C1		1.08 ± 0.011

Structure (SMILES)	viability index [1]	viability index [2]
CNC[C@H]1OCc2ccccc2-c2ccccc2C(=O)N([C@H](C)CO)C[C@@H]1C		0.99 ± 0.045
Cc1ccc(S(=O)(=O)Nc2ccc3c(c2)C(=O)N([C@@H](C)CO)C[C@H](C)[C@@H](CN(C)S(=O)(=O)c2cccs2)OCCCC[C@H](C)O3)cc1		0.8848 ± 0.0037
CN(C)C(=O)c1ccc(-c2ccccc2[C@H]2[C@@H](C#N)N(C(=O)C3CC3)[C@H]2CO)cc1		1.14 ± 0.024
C/C=C/c1ccc([C@@H]2[C@H](CO)N(C(=O)C3CCCC3)C23CN(S(C)(=O)=O)C3)cc1		1.03 ± 0.053
COc1ccc2c3c([C@H](CO)NC[C@]33CN(C3)C(=O)Nc3ccccc3F)n(C)c2c1		0.949 ± 0.019
CO[C@@H]1CN(C)C(=O)c2ccc(NC(=O)Nc3ccccc3Cl)cc2OC[C@@H](C)N(C)C[C@H]1C	0.889 ± 0.09	
C[C@@H]1CN([C@@H](C)CO)C(=O)c2cc(-c3cccc(C(=O)N(C)C)c3)cnc2O[C@H]1CN(C)C(=O)Cc1ccccn1		0.973 ± 0.097
O=C(O)[C@H]1[C@H](CO)[C@H]2Cn3c(ccc(-c4ccccc4F)c3=O)[C@H]2N1Cc1ccccc1		1.09 ± 0.037
O=C(C[C@H]1C[C@H]2c3cc(NC(=O)CC4CC4)ccc3O[C@H]2[C@H](CO)O1)NCC1CC1		0.9945 ± 0.0055
O=C(Nc1ccc(Cl)cc1)N1C[C@H]2[C@@H](c3ccccc31)[C@@H](CO)N2CC1CCCCC1		0.977 ± 0.14
OC[C@H]1[C@@H](c2ccc(-c3cccc(F)c3)cc2)[C@@H]2CN(Cc3cncnc3)CCCCN12		0.963 ± 0.1
C[C@@H]1CN([C@H](C)CO)C(=O)c2cc(NS(=O)(=O)c3cn(C)cn3)ccc2O[C@@H]1CN(C)C(=O)Nc1cccc2ccccc12		0.95 ± 0.13
O=C(c1ccccc1F)N1CC2(C1)[C@H](c1ccccc1)[C@@H](CO)N2CC1CCOCC1		1.1 ± 0.09
Cc1cccc(-c2ccc([C@@H]3[C@@H](CO)N4C(=O)CN(C(=O)c5ccc6c(c5)OCO6)C[C@H]34)cc2)c1		0.917 ± 0.033
O=C(C[C@@H]1CC[C@@H]2[C@H](COC[C@@H](O)CN2Cc2nccs2)O1)NCc1ccccc1Cl		1.035 ± 0.0082
COc1cccc(C#Cc2ccc3c(c2)O[C@@H](CN(C)C(=O)CN2CCOCC2)[C@H](C)CN([C@H](C)CO)S3(=O)=O)c1		1.02 ± 0.063
CN(C)CC(=O)N[C@@H]1CC[C@H](CCNC(=O)C2CCC2)O[C@@H]1CO		1.1 ± 0.04
CNC[C@H]1Oc2ccc(NC(=O)CCC(F)(F)F)cc2C(=O)N([C@@H](C)CO)C[C@H]1C		1.016 ± 0.0091
C[C@@H]1CN([C@H](C)CO)C(=O)c2cc(NC(=O)Nc3ccc(C(F)(F)F)cc3)ccc2O[C@@H](C)CCCCO[C@@H]1CN(C)S(=O)(=O)c1ccc(Cl)cc1		1.05 ± 0.12
O=C(C[C@H]1CC[C@@H]2[C@H](COC[C@@H](O)CN2Cc2ccc(C(F)(F)F)cc2)O1)N1CCc2ccccc2C1		1.07 ± 0.085
COc1ccc(CN(C)C[C@H]2OCCCC[C@@H](C)Oc3ccc(NC(=O)C4CCCCC4)cc3C(=O)N([C@H](C)CO)C[C@H]2C)cc1		1.04 ± 0.021
CCS(=O)(=O)N1CC2(C1)[C@H](c1ccccc1)[C@@H](CO)N2C(=O)c1ccccc1		1.13 ± 0.033
